According to PubChem BioAssay AID1508624 (National Center for Advancing Translational Sciences (NCATS), 2021):
Among all 48,000 compounds or so, about 120 (0.25%) were called active. Not shown: some 4% with an inconclusive outcome. The call rests on the fitted dose curve; in most records, active means well fitted activation curve with a large enough effect; inconclusive means small, poorly fitted or top-dose-only effect, or another doubt; inactive means no such curve, though single readings can be large or run the other way. The list shows a part of the results.

test: Primary qHTS for Identification of Small Molecule Activators of Huntingtin-Antisense Promoter Activity; details: HEK293 HTT-AS promoter firefly luciferase reporter, 24 h; series mostly up to 57.5 µM; activity change, positive = activation: at the top concentration; further: nearly all actives have a fitted effect of over 55% in size
Outline: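 HEK293 luciferase promoter-reporter cells (2,500/well) plated 24 h, then compounds added at up to 57.5 uM final for 24 h at 37 °C. Firefly luminescence by Dual-Glo, normalized to vehicle (0%) and zero RLU (-100%).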

SMILES | activity change, positive = activation
CCOc1ccc(Oc2nc(NCC(C)C)nc(N3CCOCC3)n2)nn1 | inactive: -2.16%
OC(Cn1cncn1)(Cn1cncn1)c1ccc(F)cc1F | inactive
Cc1cc(Cl)ccc1OCc1nc(-c2ccc(-n3cccc3)cc2)no1 | inactive: -10.1% [at 11.5 µM, percent change from vehicle, -100% = no light]
CCCCOC(=O)c1ccc(NC(=O)c2cc3c(=O)n4cccc(C)c4nc3s2)cc1 | inactive: -4.68%
CCOc1ccc(N2CC(c3nc4ccccc4n3CCCOc3ccccc3)CC2=O)cc1 (centres undefined) | inactive: -26.2%
Cc1c(C(=O)NCC(c2ccc(Cl)cc2)N2CCOCC2)oc2ccccc12 (centres undefined) | inactive: -20.9%
CCCCN(C)CCNC(=O)c1c2c(nc3ccccc13)C(=O)N(C1CCCCC1)C2 | inactive: -13.9%
CC(C)(C)OC(=O)N1CCC(c2c(C(=O)NCCN3CCc4ccccc4C3)cnn2-c2ccc(F)cc2F)CC1 | inactive: -29.5%
Cc1ccc(CN2CCC(CNC(=O)Nc3ccc(Cl)cc3)C2)cc1 (centres undefined) | inactive: -26.2%
Cc1ccc(NC(=O)CCn2c(=O)c3cccn3c3ccccc32)cc1C | inactive: -26.9%
Cc1ccc(-n2c(=O)c3cccnc3n2CC(=O)Nc2ccc(Br)cc2)cc1C | inactive: -21.2%
CCC(=O)N1CCc2cc(Br)cc(S(=O)(=O)CCC(=O)NCCc3cccc(C)c3)c21 | inactive: -11.8%
COc1ccc(Cl)cc1N(C)C(=O)c1ccc2c(=O)n3c(nc2c1)CCCCC3 | inactive: -12.5%
COc1ccc(NC(=O)Cn2c(=O)n(CCC(=O)NCc3ccccc3OC)c(=O)c3ccccc32)cc1Cl | inactive: -13.4%
Cc1ccc(Cn2ccn(Cc3ccccc3F)c(=O)c2=O)cc1 | inactive: 6.62%
COc1cccc(CNC(=O)CCc2c(C)nc3c(c(C)nn3-c3ccc(C)c(C)c3)c2C)c1 | inactive: -36%
Cc1nc2c(-c3ccccc3)c(C)nn2c(C)c1CCC(=O)N1CCN(c2ccc(F)cc2)CC1 | inactive: -20.3%
Cc1c(Cl)cccc1NC(=O)COCc1cc(-c2ccc3c(c2)OCO3)on1 | inactive: 4.78%
CSc1ccc(CCNC(=O)c2ccc(-c3nc(COc4ccccc4)c(C)o3)cc2)cc1 | inactive: -8.44%
Cc1cccc(N2CCN(CCCNc3ncnc4onc(-c5ccc(Cl)cc5)c34)CC2C)c1 (centres undefined) | inactive: -5.44%
COc1ccc(CCNC(=O)CCn2c(=O)c3ccccc3n(Cc3cc(C)ccc3C)c2=O)cc1OC | inactive: -17.9%
CCOc1ccccc1CNC(=O)C1CCN(C(=O)N2CC(CC)Oc3ccc(C)cc32)CC1 (centres undefined) | inactive: -35.2%
COc1cccc(CNC(=O)C(=O)NCC(c2ccco2)S(=O)(=O)c2cccs2)c1 (centres undefined) | inactive: -8.53%
CC(C)(C)C(=O)Cn1c(=O)n(-c2ccc(Cl)cc2)c(=O)c2c3c(sc21)CCCC3 | inactive: -7.35%

SMILES | activity change, positive = activation
O=C(/C=C/c1ccccc1)N1CCN(Cc2cc(=O)n3nc(-c4ccccc4F)sc3n2)CC1 | inactive: -3.31%
C[C@@H](NCCCc1cccc(C(F)(F)F)c1)c1cccc2ccccc12 | inactive
COc1ccc(N2CC(NC(=O)/C=C\c3ccccc3)CC2=O)cc1 (centres undefined) | inactive: -7.58%
O=C(Cn1c(SCCOc2ccccc2)nc2ccccc21)N1CCOCC1 | inactive: -8.11%
Cc1cc(OCCn2cc(C(=O)c3cccs3)c3ccccc32)ccc1Cl | inactive: -23.2%
O=C(Nc1ccc2nc(SCC(=O)N3CCOCC3)sc2c1)c1cccc(Cl)c1 | inactive: -27.3%
Cc1c(C(=O)OCCOc2ccccc2)[nH]c2c1C(=O)CC(c1ccccc1)C2 (centres undefined) | inactive: -41.4%
CCc1nnc(SCC(=O)Nc2ccccc2Cl)nc1CC | inactive: -11.3%
CCc1ccc(NCc2cc3cc4c(cc3n(CC(=O)Nc3cccc(OC)c3)c2=O)OCO4)cc1 | inactive: -21.2%
COCCNC(=O)Cn1nc(C)c2c(C)n(-c3ccc(C)cc3)nc2c1=O | inactive: -26.6%
CCc1ccc2ncc3c(-c4ccccc4)nn(-c4ccccc4)c3c2c1 | inactive: -20.2%
CC(C)COc1ccc(C(=O)NCC2(N3CCN(C)CC3)CCCCC2)cc1 | inactive: -16.1%
CC[N+](C)(C)c1cccc(O)c1 | inactive: 0.257%
COc1cccc(NC(=O)CSc2nnc3scc(-c4ccc(Cl)cc4)n23)c1 | inactive: -33.1%
COc1ccc(N(C(=O)c2ccc(OC)c(OC)c2)S(=O)(=O)c2ccc(Cl)cc2)cc1 | inactive: -15.3%
Cc1cc(NS(=O)(=O)c2ccc(NC(=O)c3ccccc3C)cc2)nc(C)n1 | inactive: -8.8%
Cc1ccc(C)c(NC(=O)CC2NCCNC2=O)c1 (centres undefined) | inactive: -14.4% [at 11.5 µM, percent change from vehicle, -100% = no light]
N#Cc1ccccc1Cn1c(=O)n(CCCC(=O)NCc2ccc3c(c2)OCO3)c(=O)c2sccc21 | inactive: -21.8%
Cc1ccc(NC(=O)C2CCCN(c3nnc(-n4c(C)ccc4C)s3)C2)c(C)c1 (centres undefined) | inactive: -4.85%
CCCC(C(=O)NCc1cccc(Cl)c1)N1Cc2ccccc2C1=O (centres undefined) | inactive: -5.7%
Cc1ccn2c(=O)cc(COc3ccc(NC(=O)COc4ccc(Cl)cc4)cc3)nc2c1 | inactive: -3.96%
CCCN(CCC)C(=O)Cn1c(=O)n(-c2cccc(OC)c2)c(=O)c2c3c(sc21)CCCC3 | inactive: -9.53%
Cc1csc2nc(COC(=O)c3cccc(NC(=O)COc4ccc(Cl)cc4)c3)cc(=O)n12 | inactive: -13.4%
O=C(CCCCn1c(=O)c2ccccc2n(Cc2ccccc2Cl)c1=O)NCCc1ccccc1 | inactive: -4.81%

SMILES | activity change, positive = activation
Cc1ccc2nc(-c3ccc(Cl)c(NC(=O)COc4cccc(C)c4C)c3)oc2c1 | inactive: 7.48%
CCN1CCOC(=O)C1CC(=O)Nc1cc(C)ccc1OC (centres undefined) | inactive: -14.1%
Cc1cc2c(cc1NS(=O)(=O)c1ccc(F)cc1)n(C)c(=O)c(=O)n2C | inactive: 11.2%
CCCc1cc(=O)[nH]c2nnc(SC(C)CC)n12 (centres undefined) | inactive: 0.0701%
CCOC(=O)c1sc(NC(=O)/C=C/c2ccc(C(C)C)cc2)c(C(=O)OCC)c1C | inactive: -9.05%
CCc1cccc(C)c1NS(=O)(=O)c1cc2[nH]c(=O)c(=O)[nH]c2cc1C | inactive: -3.25%
CCN(CC)c1ccc(NC(=O)CCS(=O)(=O)c2cc3c(cc2Cl)NC(=O)CO3)c(C)c1 | inactive: -3.5%
CNC(=O)C1CCC(Cn2c(=O)c3sccc3n(Cc3ccc(F)cc3)c2=O)CC1 (centres undefined) | inactive: -9.32%
CC1(C(=O)Nc2cccc(Br)c2)Cc2ccccc2C(=O)O1 (centres undefined) | inactive: -12.4%
CC(=O)N1CCCc2cc(S(=O)(=O)N3CCC(C(=O)NC4CCC(C)CC4)CC3)ccc21 (centres undefined) | inactive: -20.1%
CCc1ccc(NC(=O)CSc2nccn2-c2ccc(OC)cc2)cc1 | inactive: -14.4%
COCCCNC(=O)CCC(=O)N1Cc2cccc(OC)c2Oc2ncccc21 | inactive: -9.65%
CCCc1cc(=O)oc2c3c(ccc12)OCN(Cc1ccc(OC)cc1)C3 | inactive: -16.1%
CCn1c(C(=O)NCc2ccccc2C)cc2oc3ccccc3c21 | inactive: -29.3%
COC(=O)c1ccccc1NC(=O)c1ncoc1-c1ccco1 | inactive: -8.66%
Cc1nc(-c2cccc(NC(=O)Nc3ccc([N+](=O)[O-])cc3)c2)no1 | inactive: -60.2%
Cc1ccccc1OCCSc1nc2ccc(NC(=O)c3ccccc3)cc2s1 | inactive: -35%
NC(N)=NS(=O)(=O)c1ccc(N)cc1 | inactive: -0.377%
Cc1ccc(CCNC(=O)C(NS(=O)(=O)c2ccc3c(c2)oc(=O)n3C)C(C)C)cc1 (centres undefined) | inactive: -4.18%
CCOC(=O)CSc1ccc2nnc(CCNS(=O)(=O)c3ccccc3)n2n1 | inactive: -12.4%
Cc1ccc(N(CC(=O)N2CCN(c3ccccc3F)CC2)S(=O)(=O)c2c(C)noc2C)cc1 | inactive: -9.56%
O=C(Nc1cccc(C(=O)OCc2cc(=O)n3nc(C4CC4)sc3n2)c1)c1cccc(F)c1 | inactive: 0%
COc1ccc(Cn2ccn(Cc3cccc(C)c3)c(=O)c2=O)cc1 | inactive: -6.78%
COc1cc2c(cc1OC)C(COc1ccc3c(C)cc(=O)oc3c1)N(C(=O)c1cccc(C)c1)CC2 (centres undefined) | inactive: 4.56%

SMILES | activity change, positive = activation
CCOc1ccc(-n2c(SCC(=O)NCC3CCCO3)nc3c([nH]c4ccccc43)c2=O)cc1 (centres undefined) | inactive: -16.9%
O=C(NCCc1ccccc1)c1ccc2c(c1)N(Cc1c(F)cccc1Cl)C(=O)CS2 | inactive: -33.9%
Cn1c(=O)c(=O)n(C)c2cc(S(=O)(=O)N3CCCC3C(=O)Nc3ccccc3F)ccc21 (centres undefined) | inactive: 1.35%
COc1ccc(NC(=O)CSc2nncn3c2cc2oc(C)cc23)cc1OC | inactive: -8.93%
Cc1ccc(N(CC(=O)Nc2cccc(F)c2)S(=O)(=O)c2cccs2)cc1 | inactive: -27%
NC(=O)CSc1oc(-c2ccco2)nc1S(=O)(=O)c1ccc(Cl)cc1 | inactive: 1.94%
Cc1ccc(NC(=O)c2cc3cc(C)ccc3n2C)cc1 | inactive: 5.29%
CCOC(=O)c1ccc(NC(=O)Cn2c(=O)cc(C)c3c(C)nn(-c4cccc(F)c4)c32)cc1 | inactive: -4.78%
CCCc1cnc2c(c1SCC(=O)N1CCC(C)CC1)c(=O)n(C)c(=O)n2C | inactive: -19.3%
CCC1CCCCN1C(=O)Cn1c(=O)oc2cc(S(=O)(=O)N3CCCCC3)ccc21 (centres undefined) | inactive: -14.2%
O=C(Nc1nc2n(n1)C(c1ccc(F)cc1)C=C(c1ccccc1)N2)c1ccc(Cl)cc1 (centres undefined) | inactive: -27.7%
Cc1ccc(NC(=O)C(Cc2ccccc2)NS(=O)(=O)c2ccc3c(c2)oc(=O)n3C)cc1F (centres undefined) | inactive: -2.26%
C[C@@H](O)[C@H]1C(=O)N2C(C(=O)O)=C([C@H]3CCCO3)S[C@H]12 | inactive: 2.13%
CCCN1C(=O)c2[nH]nc(-c3ccccc3O)c2C1c1ccc(OCc2ccccc2)c(OC)c1 (centres undefined) | inactive: -45.5%
COC(=O)Cn1nc(C)c2c(C)n(-c3ccccc3)nc2c1=O | inactive: 3.04%
COc1cccc2c1cc1c(=O)n(CC(=O)NC3CCCCC3)nc(C)n12 | inactive: -9.55%
COc1cc(C(=O)N2CCN(c3ccc(Nc4ccc(C)cc4)nn3)CC2)cc(OC)c1OC | inactive: 6.92%
Cc1ccc(C(=O)Nc2cccc(OCc3cc(=O)n4c5c(sc4n3)CCCC5)c2)cc1 | inactive: -1.15%
CN1CCc2c(n(Cc3ccc(C(=O)NO)cc3)c3ccccc23)C1 | inactive: -13%
CCOc1ccccc1NC(=O)C1CCN(S(=O)(=O)c2ccc3c(c2)CC(C)N3C(C)=O)CC1 (centres undefined) | inactive: -18.3%
COc1ccc2c(C)cc(SCC(=O)Nc3nsc(-c4ccccc4C)n3)nc2c1 | inactive: -27.8%
CCOC(=O)c1ccccc1NC(=O)Cn1c(=O)n(-c2cccc(C)c2)c(=O)c2c1c1cc(C)ccc1n2C | inactive: -11.4%
